Results on 110 compounds are retold here after PubChem BioAssay AID488969 (Vanderbilt High Throughput Screening Facility, 2010).

Whole data set: some 110,000 compounds, median “z-score” near -0.1, cut for the highest 2% near 2. The list shows a part of the results. Activity calls are given as the source filed them.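 Rule for the calls: active = z-score in the third read window above 3 or below -3; inactive = the rest.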

The target of the experiment is Metabotropic glutamate receptor 8 (Rattus norvegicus) (UniProt P70579). The experiment can be described thus: rat mGluR8 modulators via GIRK flux, primary screen, cell-based, thallium flux, HTS (AID 488969). The settings on record: HEK293 rat mGluR8, GIRK (G protein-gated inwardly rectifying potassium channel) thallium flux, FluoZin2; at 10 µM; stronger effect = higher value; submaximal glutamate (EC20) added with thallium.
UniProt P70579, sequence (P70579 whole entry, looked up): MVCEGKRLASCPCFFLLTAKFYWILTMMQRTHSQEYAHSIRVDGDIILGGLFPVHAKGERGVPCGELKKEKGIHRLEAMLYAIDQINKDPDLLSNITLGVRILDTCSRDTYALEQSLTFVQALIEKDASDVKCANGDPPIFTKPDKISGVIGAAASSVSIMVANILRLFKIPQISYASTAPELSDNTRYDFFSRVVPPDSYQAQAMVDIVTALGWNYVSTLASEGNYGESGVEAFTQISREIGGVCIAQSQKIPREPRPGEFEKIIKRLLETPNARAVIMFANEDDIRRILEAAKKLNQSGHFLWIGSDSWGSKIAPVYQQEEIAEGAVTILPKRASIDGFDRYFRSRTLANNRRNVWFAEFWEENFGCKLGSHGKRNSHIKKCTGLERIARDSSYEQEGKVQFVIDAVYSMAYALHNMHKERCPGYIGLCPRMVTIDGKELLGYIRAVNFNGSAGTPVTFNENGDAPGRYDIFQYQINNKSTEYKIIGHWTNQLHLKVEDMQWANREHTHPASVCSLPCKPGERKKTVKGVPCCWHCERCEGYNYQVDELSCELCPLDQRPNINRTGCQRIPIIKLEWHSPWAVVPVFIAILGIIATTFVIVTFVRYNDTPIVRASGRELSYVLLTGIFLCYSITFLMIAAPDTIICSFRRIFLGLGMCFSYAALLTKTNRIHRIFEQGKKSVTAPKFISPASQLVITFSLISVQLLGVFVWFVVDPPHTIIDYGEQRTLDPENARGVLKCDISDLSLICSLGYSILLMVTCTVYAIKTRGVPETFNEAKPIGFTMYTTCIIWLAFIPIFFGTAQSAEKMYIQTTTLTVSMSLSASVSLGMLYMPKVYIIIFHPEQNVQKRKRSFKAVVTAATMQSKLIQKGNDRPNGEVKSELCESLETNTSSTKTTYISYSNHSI
With `Cc1nnc(C)n1/N=C/c1ccc(C(=O)O)cc1`, the z-score is -0.174.
In the case of `O=C(CCCCn1c(=S)[nH]c2ccsc2c1=O)NCc1ccco1`, the z-score is -0.611.
As to `Cc1c(Cl)cccc1NC(CC(=O)c1ccccc1)C(=O)O` (stereo not given), the z-score is -0.125.
Next, `CCc1ccccc1NCC(=O)Nc1ccccc1C(=O)OC`: -0.497; `Cc1ccsc1C(=O)OCC(=O)Nc1ccc(Cl)cc1C(F)(F)F`: -0.158.
The result for `Cc1nccn1CCc1n[nH]c(=S)n1Cc1ccccc1` reads -0.156; that for `O=C(Nc1c(-c2ccccc2)nc2ccc(Cl)cn12)c1cccs1`, 0.806.
In turn, `O=C(COC(=O)CCCSc1nc2ccccc2[nH]1)Nc1ccc(Cl)cc1` had a z-score of -0.754.
`Oc1c(Cl)cc(Cl)cc1CNc1ccc(Br)cn1` had a z-score of 0.354.
The result for `O=C(CN1C(=O)CCS(=O)(=O)c2ccccc21)Nc1cccc(Cl)c1` reads 0.847.
In the case of `S=C(NC1CCCCC1)N(CCc1nc2ccccc2[nH]1)C1CCCC1`, the z-score is -1.02.
With `CN(C)CCCN(C(=O)c1ccc2c(c1)CCCC2)c1nc2c(F)cccc2s1`, the z-score was -0.121.
Compound `Cc1nnc(SCC(=O)N2CCc3ccccc32)n1-c1ccccc1` displayed a z-score of 0.0722.
Compound `CCOc1ccc(NS(=O)(=O)c2ccc(NC(C)=O)c(OC)c2)cc1` gave a z-score of 0.00898.
`CCCCN(C)C(=O)C(Cc1ccccc1)NS(=O)(=O)c1ccc2c(c1)c(=O)n(C)c(=O)n2C` (stereo not given) gave a z-score of 0.0206.
As for `COc1cccc(C(=O)CN2CCC(NC(=O)NC3CCCCC3)CC2)c1`, the z-score worked out at 0.00206.
Next, `O=C(NCCc1c[nH]c2ccccc12)C(=O)NCC(c1ccco1)N1CCN(c2ccc(F)cc2)CC1` (stereo not given): -0.165.
Next, `Cc1oc(-c2ccccc2F)nc1CS(=O)(=O)CC(=O)N1CCCCCC1`: -0.805; `COc1ccc(CNC(=O)C(C#N)c2nc3ccccc3nc2N2CCCC2)cc1` (stereo not given): active: -4.86; `Cc1cccn2c(=O)c3cc(C(=O)N4COCC4(C)C)n(C)c3nc12`: -0.119.
`O=C(NCc1ccccc1)c1ccc(Cl)cc1[N+](=O)[O-]`: the z-score was -0.0935.
As for `Nc1c(C(=O)Nc2ccccc2)sc2nc3c(c(-c4ccco4)c12)CCC3`, the z-score is -0.165.
Next, `CCCc1cc(Nc2ccccc2OCC)n2ncnc2n1`: -0.871.
In turn, `Cc1ccc(CSCC(=O)N2CCN(c3ccc(F)cc3)CC2)cc1` yielded a z-score of -0.408.
The result for `CC(C)Cn1c(SCC(=O)c2c(N)n(C)c(=O)n(C)c2=O)nc2ccccc21` reads -0.371.
In turn, `CCn1c(SCC(=O)Nc2ccc3c(c2)oc2ccccc23)nnc1-c1ccc(N)cc1` returned a z-score of -0.0175.
Take `COc1ccc(NC(=O)C(C)N(c2ccc(C)cc2)S(C)(=O)=O)c(OC)c1` (stereo not given): the z-score was -0.397.
Next, `COc1ccc(-c2cc(C(F)(F)F)n3nc(C(=O)NCc4ccco4)c(Cl)c3n2)cc1`: 0.638; `O=C(Nc1ccc(CN2CCOCC2)cc1)c1ccc(-c2cc(Cl)ccc2Cl)o1`: -0.386.
In the case of `O=C(Nc1ccc(OC(F)F)cc1)Nc1cccc(C(F)(F)F)c1`, the z-score is 1.31.
The result for `COc1ccc(Oc2nc3ccccc3nc2C(F)(F)F)cc1` reads -0.00913; that for `O=C(O)c1cnn2c1NC(c1ccc(F)cc1)CC2C(F)(F)F` (stereo not given), -1.57; that for `O=C(NNC(=O)c1cccnc1)Nc1ccccc1`, -0.111.
The compound `O=S(=O)(Nc1ccc(S(=O)(=O)N2CCOCC2)cc1)c1ccccc1` displayed a z-score of 0.605.
Next, `CC(C)OCCCNC(=O)Cn1nc(-c2ccccc2)ccc1=O`: 0.151.
Next, `O=C(O)C1C(c2ccccc2)C(C(=O)OCCCO)C1c1ccccc1` (stereo not given): -0.392; `Cc1ccc(OCCNC(=O)c2cc(-n3cnnc3)ccc2Cl)cc1C`: -0.148.
Next, `O=c1oc(-c2cccs2)nc2ccccc12`: -0.0468; `Cc1cc(-n2c(C)cc(C(=O)CSc3nnc4sc5ccccc5n34)c2C)no1`: -0.911.
Turning to `CCOc1ccc(N2C(=O)CC(SC(=NC)Nc3ccc(F)cc3)C2=O)cc1` (stereo not given), the z-score was active: 3.7.
`CCOC(=O)CCCCC(=O)c1[nH]c(=O)[nH]c1CSc1nc(-c2ccccc2)c(C#N)c(=O)[nH]1` displayed a z-score of -0.123.
Next, `OCCNC(=S)NCCc1ccccc1`: -0.0551; `Cc1cc(C)n(-c2cc(-c3ccccc3)nc(C)n2)n1`: 0.233.
As for `O=C(CCSCCc1ccncc1)NCCCN1CCOCC1`, the z-score was -0.634.
In turn, `O=C1CSC(c2ccccc2)N1c1nc(-c2ccc(Cl)cc2Cl)cs1` (stereo not given) displayed a z-score of -0.0976.
Regarding `CCOC(=O)c1cc(-c2ccccc2)sc1NC(=O)c1ccc(OC)c(OC)c1`, the z-score was -0.22.
As to `C/C(CC(=O)Nc1ccccn1)=N\NC(=O)c1ccc(C)cc1`, the z-score stood at 0.0861.
`O=C(Cc1nnc(NC(=O)Nc2ccccc2)s1)NCc1ccccc1` showed a z-score of -0.16.
Next, `Fc1ccc(-c2nnc(NC3=NCCCCC3)o2)cc1`: -0.435; `CCN1/C(=C/c2ccc3cccc(C)c3[n+]2CC)Sc2ccccc21`: -1.51; `OCCCc1nc2n(n1)C(c1cccs1)C=C(c1ccc(Br)cc1)N2` (stereo not given): active: 5.08.
Next, `O=C1CN(C(=O)c2ccccc2F)c2ccccc2N1`: 0.252; `COc1cc(/C=C2\SC(c3ccc(C)cc3)=NC2=O)ccc1O`: -0.769.
Next, `C=CCc1ccc(OCCOCCOc2ccccc2[N+](=O)[O-])c(OC)c1`: -0.417.
Take `COc1ccccc1C(=O)NCC1CCN(c2ccc(S(=O)(=O)N3CCOCC3)cc2)CC1`: the z-score is -0.35.
`COc1ccc(CCNC(=O)Cn2cnc3c(nnn3Cc3ccccc3F)c2=O)cc1OC` had a z-score of -0.0957.
The result for `COc1ccc(/C=C/C(=O)Nc2nc(C)cc(C)n2)cc1OC` reads 0.186; that for `COc1ccccc1NS(=O)(=O)c1cc(C)ccc1C`, -0.732; that for `CC1(C)N=C(N)NC(Nc2ccc(Br)cc2)=N1`, -0.00115.
Next, `CC(C(=O)NCc1ccco1)n1cc(C(=O)c2ccco2)c2ccccc21` (stereo not given): -0.366.
Next, `CCNC(=S)N/N=C/c1cn(Cc2ccccc2F)c2ccccc12`: -0.0856.
Compound `CC(C)N(C(=O)Nc1ccc2nccnc2c1)C(C)C` had a z-score of -0.935.
The result for `COC(=O)Cc1[nH]nc2c1C1(C(=O)N(Cc3ccc(Cl)cc3)c3ccccc31)C(C#N)=C(N)O2` (stereo not given) reads -0.138.
The result for `CCCCOC(=O)n1c(=O)oc2cc(S(=O)(=O)N3CCCCC3)ccc21` reads -0.244; that for `Cc1ccc(Oc2nc3ccccn3c(=O)c2/C=C(\C#N)C(=O)Nc2c(C)n(C)n(-c3ccccc3)c2=O)cc1`, -0.0585.
In the case of `COc1ccc(OC)c2c1sc(=NC(=O)C(C)(C)C)n2C`, the z-score was 0.232.
Regarding `Cc1ccc(-c2nc3ccccc3c(C(=O)NCc3cccs3)c2C)cc1`, the z-score is -0.236.
Next, `CC(C)c1nnc(SCC(=O)N2CCOCC2)n1C`: -0.0423.
The result for `Cc1cc(S(=O)(=O)Nc2ccc(F)cc2)c(C)s1` reads -0.352.
`CC(C)(C)NC(=O)Cn1cnc([N+](=O)[O-])n1` yielded a z-score of -0.161.
Next, `Cc1ccc(S(=O)(=O)c2c(C)nn(-c3ccccc3)c2OC(=O)c2ccc(Br)o2)cc1`: 0.171.
The result for `COC(=O)c1ccccc1NC(=O)CSc1nnc(C(CO)NC(=O)c2ccccc2Cl)n1C` (stereo not given) reads -0.238; that for `Cc1csc(SCCn2c(Br)nc3c2c(=O)[nH]c(=O)n3C)n1`, 0.73.
With `CCN(CC)CCNC(=O)CCc1n[nH]c(=O)c2ccccc12`, the z-score was -0.625.
The result for `CC(/C=N/n1c(-c2ccco2)n[nH]c1=S)=C\c1ccco1` reads 0.1; that for `Cc1cc(Oc2ccc(Cl)cc2)nc(SCC(=O)c2ccccc2)n1`, -0.297.
The result for `CCOC(=O)c1sc(NC(=O)c2cc3n(n2)C(C(F)(F)F)CC(c2ccccc2)N3)c(C(=O)OCC)c1C` (stereo not given) reads 0.271.
As to `CCn1cc(/C=N\NC(=O)Cc2ccc(Cl)cc2)cn1`, the z-score was -0.396.
Next, `COc1ccc(N(C)C(=O)c2ccc3nc(-c4ccccc4)c(-c4ccccc4)nc3c2)cc1`: 0.247.
Next, `COCCNC(=O)Nc1ccc2nc(-c3cccs3)c(-c3cccs3)nc2c1`: -0.235; `O=C(NCCCCC(NC(=O)C1CCCCC1)C(=O)O)c1ccccc1` (stereo not given): 1.57.
`CN1CCN(c2cc(=O)n(C3CCCCC3)c(=O)[nH]2)CC1` returned a z-score of -0.0935.
Next, `CC(C)C(=O)Nc1cccc(-c2cn3ccsc3n2)c1`: -1.08.
The compound `COC(=O)c1sccc1-n1cccc1C(=O)C(=O)N1CCCC1` had a z-score of -0.405.
As to `Cc1nn(-c2ccccc2)c(N)c1C(O)(C(F)(F)F)C(F)(F)F`, the z-score is -0.777.
Next, `Cc1nn(C)c(C)c1NC(=O)c1ccc(Cl)cc1`: 0.387; `Cc1ccc(C)c(OCC(=O)Nc2ccc(S(=O)(=O)N3CCN(C)CC3)cc2)c1`: 0.121.
Compound `Cc1cc(C)cc(NC(=O)C(NCC2CCCO2)c2ccccc2)c1` (stereo not given) showed a z-score of 0.0179.
The result for `Cc1ccc(NS(=O)(=O)c2ccc(OCC(=O)NCc3ccco3)cc2)cc1` reads -0.0298; that for `Cn1ncc(Cl)c(Oc2ccccc2)c1=O`, 0.0121.
Next, `CCOC(=O)c1ccc(NC(=S)NCCCN2CCCCC2)cc1`: 0.0224; `NS(=O)(=O)c1ccc(N=Nc2c(-c3ccccc3)[nH]n(-c3nc(-c4ccccc4)cs3)c2=O)cc1`: -0.151; `Cc1ccc(-c2nn(CC(=O)O)c(=O)c3ccccc23)cc1`: -0.699.
With `CN(NC(=O)COc1ccccc1)c1ccccc1`, the z-score is 0.0226.
The result for `Cc1c(Cl)cccc1NC(=S)/C(=C(\[O-])c1ccc(Cl)s1)[n+]1ccccc1` reads 2.24; that for `CCCCC(=O)Nc1cccc(-c2nn3c(C)nnc3s2)c1`, -0.93; that for `O=C(CCCSc1nc2ccccc2[nH]1)NC(c1ccccc1)c1ccccc1`, -0.924.
Turning to `CCCCc1ccc(-c2csc(/C(C#N)=C\c3ccco3)n2)cc1`, the z-score is -0.0195.
For `CC(C)C1N=C2c3ccccc3N=C(SCc3cc(=O)n4cc(Cl)ccc4n3)N2C1=O` (stereo not given), the z-score came to 0.849.
The result for `O=C(NCC1CCCO1)C1CCN(S(=O)(=O)c2cccc3nonc23)CC1` (stereo not given) reads 0.153; that for `CCCCc1cc(=O)oc2c(CN3CCCC3)c(O)c(Cl)cc12`, 0.402.
Next, `COc1ccc(NC(=S)NCCSc2ccc(C)cc2)c(OC)c1`: -0.403; `CC(C)CC(=O)Nc1nnc(-c2ccco2)s1`: -0.113.
`Cc1ccc(S(=O)(=O)c2ccc(C)cc2)cc1` had a z-score of -0.487.
Next, `c1ccc(-c2c[nH]c3[n+]2CCCCC3)cc1`: -0.144.
Next, `C=CCN(CC=C)CCOc1ccccc1`: -0.151; `Cc1csc(NC(=O)CSc2nnnn2C)n1`: -0.0645; `Cc1c(Cl)cnc(NC(=O)COC(=O)c2cccc(S(=O)(=O)N3CCc4ccccc4C3)c2)c1Cl`: -0.11.
With `Cc1c(N=C2NC(=O)C(CC(=O)Nc3ccc(Cl)cc3)S2)c(=O)n(-c2ccccc2)n1C` (stereo not given), the z-score was -0.0732.
The result for `O=C1CN=CN=CN1c1ccc(Cl)cc1Cl` reads -0.115.
